Tests used:
[1] = test system: BMS human breast cancer cells; test: Haptotactic tumor cell migration toward fibrinogen (transwell); format: cell-based; conditions: 2 μM scFv, 16 hrs at 37° C.
Method: (§1) FIGS. 3A, 3B, 3C, 3D, 3E. scFv Bc-12 and Bc-15 inhibit αvβ3 mediated adhesive breast cancer cell functions. (A) Adhesion of BMS human breast cancer cells to fibrinogen (Fg), vitronectin (VN) or type I collagen (Col I) in the absence or presence of 3 μM Bc-12, Bc-15 or their RGE mutants Mut-12, Mut-15, compared to 200 μM GRGDSPK peptide (SEQ ID NO: 11). Protein coating concentrations: 10 μg/ml (VN, Col I) or 20 μg/ml (Fg). Adhesion time: 30 min at 37° C. (B) Effect of scFvs on haptotactic BMS cell migration toward a fibrinogen substrate (16 hrs at 37° C. in transwell chambers with or without 2 μM Bc-12, Bc-15 or their RGE mutants Mut-12 or Mut-15, compared to 200 μM GRGDSPK peptide) (SEQ ID NO: 11). (C) Effect of scFvs on breast cancer cell arrest during blood flow. […] Tumor cell adhesion was quantified by image acquisition at 30 predefined positions during blood flow. Left: representative images of platelet signal (thrombi, green fluorescence) and tumor cell signal (red fluorescence) at identical x,y positions. […]
Cell adhesion and migration. Tumor cell adhesion under stationary conditions was analyzed as detailed earlier (19). […] Haptotactic tumor cell migration toward fibrinogen was analyzed in transwell chambers as detailed earlier. […]

BMS breast cancer cells = test: Tumor cell arrest during blood flow; format: cell-based; conditions: 3 μM scFv, human blood, collagen I matrix, shear rate 50 s^−1
Method: as §1, with “C.” for “C. (B) Effect of scFvs on haptotactic BMS cell migration toward a fibrinogen substrate (16 hrs at 37° C. in transwell chambers with or without 2 μM Bc-12, Bc-15 or their RGE mutants Mut-12 or Mut-15, compared to 200 μM GRGDSPK peptide) (SEQ ID NO: 11). (C) Effect of scFvs on breast cancer cell arrest during blood flow.”
Tumor cell arrest during bloodflow. Breast cancer cell arrest during blood flow and interaction with platelets was measured as described. […] Adhesive events and cell interactions were visualized and recorded by fluorescence video microscopy and quantified by image acquisition at 30 predefined positions followed by computerized image analysis (MetaMorph, Universal Imaging). Tumor cells were stained with hydroethidine (red fluorescence) (20 μg/ml, 30 min, 37° C.), washed, and mixed with blood containing 10 μM mepacrine (green fluorescence). Blood cells, tumor cells, and platelets acquired green fluorescence and were visualized at 488/515 nm (excitation/emission). […]

Molecule	fibrinogen directed migration [1]	breast cancer cell arrest during blood flow (BMS breast cancer cells)
Bc-15: patient derived human scFv antibody against activated αvβ3 with RGD motif in CDR-H3; cDNA ATCC PTA-6304 (protein) scFv: MAQVQLVQSGAEVKEPGSSVKVSCKASGGTFSSYAIYWVRQAPGQGLEWMGWINPDSGDTNSAQQFQGRVTMTRDTSISTAYMELSRLRSDDTAMYYCARPPRGDGPDYWGQGTLVTVSSGGGGGS[letters of about 100 residues not shown]RGLGGLVDYKDDDDK	inhibited BMS human breast cancer cell migration almost completely	efficiently inhibited
Mut-15: RGE containing mutant version of scFv Bc-15 (protein) MAQVQLVQSGAEVKEPGSSVKVSCKASGGTFSSYAIYWVRQAPGQGLEWMGWINPDSGDTNSAQQFQGRVTMTRDTSISTAYMELSRLRSDDTAMYYCARPPRGEGPDYWGQGTLVTVSSGGGGGS[letters of about 100 residues not shown]RGLGGLVDYKDDDDK	no effect	no effect
